# Source: article PMC4336329 (PLoS ONE, 2015)
# Screen size: about 310,000 compounds; about 2,200 (0.71%) showed an effect of 50% or more. The effect is printed as a negative number. The list shows a part of the results.
# Biological target: human ether-à-go-go-related gene (hERG) potassium channel (human, UniProt Q12809)
# Assay: primary screen, population patch clamp on CHO cells stably expressing hERG
# Sequence of human ether-à-go-go-related gene (hERG) potassium channel (Q12809 whole entry, looked up): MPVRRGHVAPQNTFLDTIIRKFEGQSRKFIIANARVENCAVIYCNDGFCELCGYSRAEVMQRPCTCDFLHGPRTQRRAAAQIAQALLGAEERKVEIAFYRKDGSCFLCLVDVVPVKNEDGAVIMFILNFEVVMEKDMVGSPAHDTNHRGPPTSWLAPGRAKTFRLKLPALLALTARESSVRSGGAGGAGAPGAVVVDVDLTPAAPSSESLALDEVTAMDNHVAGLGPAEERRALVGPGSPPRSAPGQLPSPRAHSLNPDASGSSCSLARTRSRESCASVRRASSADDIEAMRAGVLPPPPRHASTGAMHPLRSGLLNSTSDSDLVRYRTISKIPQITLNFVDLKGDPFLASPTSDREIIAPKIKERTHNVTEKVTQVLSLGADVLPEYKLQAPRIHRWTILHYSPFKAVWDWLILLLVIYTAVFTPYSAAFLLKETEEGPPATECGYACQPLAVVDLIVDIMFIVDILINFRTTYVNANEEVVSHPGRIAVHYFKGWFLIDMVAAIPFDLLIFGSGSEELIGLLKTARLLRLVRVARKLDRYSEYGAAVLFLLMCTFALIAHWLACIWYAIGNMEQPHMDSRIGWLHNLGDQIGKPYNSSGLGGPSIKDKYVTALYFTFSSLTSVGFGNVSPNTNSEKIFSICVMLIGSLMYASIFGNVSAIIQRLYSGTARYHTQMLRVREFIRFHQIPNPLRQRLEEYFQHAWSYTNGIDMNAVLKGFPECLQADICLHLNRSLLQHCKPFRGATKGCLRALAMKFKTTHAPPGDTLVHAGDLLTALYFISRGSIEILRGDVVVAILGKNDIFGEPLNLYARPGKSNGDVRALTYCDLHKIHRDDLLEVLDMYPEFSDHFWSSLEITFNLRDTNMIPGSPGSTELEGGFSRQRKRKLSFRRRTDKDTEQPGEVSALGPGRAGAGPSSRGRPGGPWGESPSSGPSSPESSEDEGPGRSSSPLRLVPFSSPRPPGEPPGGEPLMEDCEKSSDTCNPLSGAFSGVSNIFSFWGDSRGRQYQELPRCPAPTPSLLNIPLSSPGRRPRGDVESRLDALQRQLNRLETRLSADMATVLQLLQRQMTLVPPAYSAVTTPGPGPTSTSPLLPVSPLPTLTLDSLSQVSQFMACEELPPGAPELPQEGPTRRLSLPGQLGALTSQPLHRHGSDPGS
row,Compound,"hERG current change (%, negative = inhibition) at 1uM [%]"
1,Cl.Clc1ccccc1CSc1nnc([C@@H]2CCCN2)o1,14.9
2,Cc1[nH]c(=O)nc2c1CCC2,14.8
3,CCn1c(N2CCN(CC(=O)Nc3cccc(C)c3C)CC2)nc2ccccc21,-26.9
4,COc1ccc(CNC(=O)[C@H](C)NC(=O)C2CCN(S(=O)(=O)c3ccccc3)CC2)cc1,11.3
5,COc1ccc(N2CCN(C(=O)C3(C)CC3(Cl)Cl)CC2)cc1 (centres unmarked),9.18
6,Cn1c(Cn2c(=O)sc3ccccc32)nnc1SCC(=O)Nc1ccccc1F,8.63
7,COc1ccc(C(C#N)CCC2OCCO2)cc1OC (centres unmarked),-4.41
8,COc1ccc(CCN2C(=O)CSC2c2ccc(F)cc2)cc1 (centres unmarked),15
9,CC(C)(C)c1csc(Sc2ncccc2[N+](=O)[O-])n1,15.2
10,CC(/C=C/c1ccc(Cl)o1)=C\C(=O)O,7.22
11,CC1CN(CCOc2ccc(Cl)cc2Cl)CC(C)O1.O=C(O)C(=O)O (centres unmarked),3.42
12,Cc1cc(C(=O)COC(=O)c2ccc[nH]c2=O)c(C)n1-c1ccc(F)cc1,-6.89
13,COc1ccc(S(=O)(=O)NCC2CCCN(C(=O)C=C(C)C)C2)cc1 (centres unmarked),11.3
14,CCOC(=O)C(=O)CC(=O)c1ccc2c(c1)OCCO2,-8.9
15,N#Cc1ccccc1COc1cccc2c1CCCC2O (centres unmarked),14.1
16,CCOC(=O)C(CC)n1cnc2c(nnn2-c2ccc(F)cc2)c1=O (centres unmarked),2.12
17,O=C(CSc1nnnn1-c1cccc2ccccc12)NC(C(=O)O)(c1ccccc1)c1ccccc1,12.2
18,COc1ccc(S(=O)(=O)NNC(=O)Nc2ccc(C)cc2C)c(OC)c1,9.84
19,O=C(CC1SC(=O)N(c2ccccc2)C1=O)Nc1ccc(Cl)cc1 (centres unmarked),14.5

row,Compound,"hERG current change (%, negative = inhibition) at 1uM [%]"
1,Cc1ccc(S(=O)(=O)Nc2nc(CN3CCOCC3)nc3sc(C)c(C)c23)cc1,-4.2
2,COc1ccccc1CN(C(=O)CCl)C(C(=O)NC1CCCCC1)c1ccncc1 (centres unmarked),11.6
3,Cc1n[nH]c(=O)c2c(NC(=O)CSc3nnnn3-c3ccccc3)oc(C)c12,9.93
4,CCC12CN(C(=O)c3ccc(OC)cc3)CC(CC)(CN(C(=O)c3ccc(OC)cc3)C1)C2=O,9.71
5,Cc1cc(C(=O)CCC(=O)NC(C)c2ccc(S(N)(=O)=O)cc2)c(C)s1 (centres unmarked),10.3
6,Cn1c(SCC(=O)Nc2sccc2C(N)=O)nnc1-c1ccncc1,3.55
7,O=C(/C=C/c1ccc(Cl)cc1Cl)NCc1ccncc1,12
8,CN(C)CCSc1nnc(-c2ccccc2)o1.Cl,1.81
9,c1ccc(-c2nc3ccccn3c2NC2CCCC2)nc1,6.33
10,CCN(CC)Cc1c(C(=O)N/N=C/c2ccncc2)nnn1-c1nonc1N,-16.3
11,O=C(COc1coc(CN2CCN(c3ccccc3)CC2)cc1=O)Nc1cccc(F)c1,9.9
12,Cc1onc(-c2ccc(Cl)cc2Cl)c1-c1csc(N/N=C/c2ccccc2)n1,7.93
13,Cn1nccc1C(=O)Oc1cccc(/C=N/NC(=O)c2ccccc2O)c1,12.3
14,CC(=O)N1c2ccc(S(=O)(=O)N3CCCCC3)cc2CC1C(=O)Nc1ccccc1C(F)(F)F (centres unmarked),9.25
15,O=C(OCc1c(-c2ccccc2)ncc2ccccc12)N1CCOCC1,13
16,CCC(=O)N1CCc2cc(Br)cc(S(=O)(=O)N(C)c3ccc(OC)cc3)c21,6.35
17,CCOC(=O)/C(C#N)=C/C1=C(N2CCOCC2)C(C)(C)OCC1,17.1
18,CCCn1c(=O)c(-c2nc3ccccc3[nH]2)c(O)c2ccccc21,6.77
19,Cc1cc(C(=O)OCC(=O)Nc2ccccc2)c(C)o1,7.07

row,Compound,"hERG current change (%, negative = inhibition) at 1uM [%]"
1,COC(=O)C(O)(CC(=O)Nc1cc(Cl)ccc1Cl)C(F)(F)F (centres unmarked),3.33
2,COc1ccc2[nH]c(C(=O)N3CCC(n4nccc4NC(=O)C4CC4)CC3)c(C)c2c1,8.32
3,Cc1ccc([N+](=O)[O-])cc1S(=O)(=O)NCCc1c(C)[nH]c2ccccc12,4.4
4,CCCOc1ccc(C(=O)NNC(=S)NC(=O)c2cc(-c3ccccc3)nc3ccccc23)cc1,3.17
5,CC(=O)c1cccc(NC(=O)N2CCC(c3ccc(C)cc3)C2)c1 (centres unmarked),12
6,O=C(N/N=C/c1ccccc1O)C1CC(=O)N(c2ccc(Cl)cc2)C1 (centres unmarked),13.3
7,O=C(c1cc2ccccc2o1)N(C1CC1)C1(C(=O)Nc2ccccc2)CCCC1,11.9
8,COc1ccc(S(=O)(=O)N2CCOCC2)cc1NC(=O)c1cc(C)oc1C,-2.29
9,Cc1ccc(-c2noc(CCCC(=O)N3CCOCC3)n2)cc1,3.78
10,Cc1cccc(C(=O)NCC(=O)OCC(=O)c2cc(C)n(CC3CCCO3)c2C)c1 (centres unmarked),6.88
11,Cc1ccc(S(=O)(=O)Oc2ccc(/C=C(/NC(=O)c3ccccc3)C(=O)NCC(=O)O)cc2)cc1,10.2
12,Cc1ccc(N=C2C(=O)Nc3ccccc32)cc1,1.54
13,Cc1ccc(Cl)c2c1=NC(=O)C=2c1[nH]c(=S)[nH]c1O,4.5
14,O=C(NC(=S)NCc1cccnc1)c1ccccc1F,9.44
15,C=CCN(CC=C)C(=S)Nc1ccccc1,13.8
16,Cc1ccc(-c2csc3ncnc(-n4nc(C)cc4N)c23)cc1,1.99
17,COc1ccc2c(c1)CCc1c(C(=O)Nc3c(C)nn(Cc4ccccc4)c3C)noc1-2,11.6
18,COc1ccc(C2C3=C(CC(C)(C)CC3=O)N(C)C3=C2C(=O)CC(C)(C)C3)cc1,6.72
